Laboratory results taken from the supplement of paper PMC7266297.
Where a name gives a salt, the structure may show the parent alone. The list shows a part of the results. Single values are uncertain, as repeats are few or missing.

tested on: KB-3-1; experiment: growth inhibition relative to DMSO control (SRB); cervical cancer cells: KB-3-1 is the parent and KB-V1 overexpresses MDR1; SRB is the sulforhodamine B stain; higher = more growth inhibition; settings: 1 µM; 72 h
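Further: Read-out is SRB optical density at 490 nm, with the control being wells given 0.5% DMSO vehicle, and compound added one day after cells were plated.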

SMILES | growth inhibition
CC(C)NC[C@@H](C(=O)N1CCN(c2ncnc3c2[C@H](C)C[C@H]3O)CC1)c1ccc(Cl)cc1 | 45.5%
CC(C)CCN1c2nc(Nc3cc(F)c(O)c(F)c3)ncc2N(C)C(=O)C1C (configuration not stated) | 4.84%
C[C@]12CC[C@@H]3c4ccc(O)cc4C[C@@H](CCCCCCCCC[S+]([O-])CCCC(F)(F)C(F)(F)F)[C@H]3[C@@H]1CC[C@@H]2O (some centres not stated) [Fulvestrant] | 38.8%
O=C(O)c1ccc(Nc2ncc3c(n2)-c2ccc(Cl)cc2C(c2c(F)cccc2F)=NC3)cc1 | 96.2%
CC(=O)Nc1nc(C)c(-c2ccc(Cl)c(S(=O)(=O)NCCO)c2)s1 | 41.7%
Cn1c(=O)c2[nH]cnc2n(C)c1=O [Aminophylline] | 32.7%
Nc1nc(=O)n([C@@H]2CS[C@H](CO)O2)cc1F [Emtricitabine] | 44.4%
Cc1ccc(NC(=O)c2ccc(CN3CCN(C)CC3)cc2)cc1Nc1nc(-c2cccnc2)cs1 [Masitinib (AB1010)] | 9.73%

tested on: KB-V1; experiment: as above; settings: 1 µM; 72 h

SMILES | growth inhibition
C[C@H](Oc1cc(-c2cnn(C3CCNCC3)c2)cnc1N)c1c(Cl)ccc(F)c1Cl [(S)-crizotinib] | 17.9%
CC(C)c1cc(-c2n[nH]c(=O)n2-c2ccc3c(ccn3C)c2)c(O)cc1O [Ganetespib (STA-9090)] | 74.5%
NC1(Cc2ccc(Cl)cc2)CCN(c2ncnc3[nH]ccc23)CC1 | < 0%
CCN(CC)CC#CCOC(=O)C(O)(c1ccccc1)C1CCCCC1 (configuration not stated) [Oxybutynin chloride] | 20.8%
CC[N+](CC)(CC)CCOc1cccc(OCC[N+](CC)(CC)CC)c1OCC[N+](CC)(CC)CC [Gallamine Triethiodide] | 21.2%
CC(C)(O)[C@H]1CC[C@@](C)([C@H]2[C@@H](O)C[C@@]3(C)[C@@H]4C[C@H](O[C@@H]5O[C@H](CO)[C@@H](O)[C@H](O)[C@H]5O)[C@H]5C(C)(C)[C@@H](O[C@@H]6OC[C@@H](O)[C@H](O)[C@H]6O)CC[C@@]56C[C@@]46CC[C@]23C)O1 [Astragaloside A] | 25.2%
CC(C)c1nc(N(C)S(C)(=O)=O)nc(-c2ccc(F)cc2)c1/C=C/[C@@H](O)C[C@@H](O)CC(=O)O [Rosuvastatin Calcium] | 21.5%
COC(=O)C1=C(C)NC(C)=C(C(=O)OCCN2CCN(C(c3ccccc3)c3ccccc3)CC2)C1c1cccc([N+](=O)[O-])c1 (configuration not stated) [Manidipine 2HCl] | 12.8%
Cn1cc(-c2ccc3nnc(C(F)(F)c4ccc5ncccc5c4)n3n2)cn1 | 38.1%
COC1=C2C[C@@H](C)C[C@H](OC)[C@H](O)[C@@H](C)/C=C(\C)[C@H](OC(N)=O)[C@@H](OC)/C=C\C=C(/C)C(=O)NC(=CC1=O)C2=O [Geldanamycin] | 62.2%
COc1cc2nccc(Oc3ccc(NC(=O)Nc4cc(C)on4)c(Cl)c3)c2cc1OC [Tivozanib (AV-951)] | 28.2%
Nc1cccc2c1C(=O)N(C1CCC(=O)NC1=O)C2=O (configuration not stated) [Pomalidomide] | 19.3%
O=C(Nc1cc(C(F)(F)F)cc(C(F)(F)F)c1)c1cc(Cl)ccc1O | 80.7%
COc1cc2c(cc1OC)CN(CCc1ccc(NC(=O)c3cc(OC)c(OC)cc3NC(=O)c3cnc4ccccc4c3)cc1)CC2 [Tariquidar] | 24.1%
CC(=O)Oc1cc(C(F)(F)F)ccc1C(=O)O [Triflusal] | 2.2%
O=C1[C@H](Cc2ccc(O)cc2)N2C(=O)CCN(C(=O)NCc3ccccc3)[C@H]2CN1Cc1cccc2ccccc12 | < 0%
C=CCn1c(=O)c2cnc(Nc3ccc(N4CCN(C)CC4)cc3)nc2n1-c1cccc(C(C)(C)O)n1 | 75.2%
Cc1ccc(O)c([C@H](CCN(C(C)C)C(C)C)c2ccccc2)c1 [Tolterodine tartrate] | 5.32%
CN1CC[C@H](c2c(O)cc(O)c3c(=O)cc(-c4ccccc4Cl)oc23)[C@H](O)C1 [Flavopiridol HCl] | 98%
Cn1cc(CNCC2CCN(c3ncc(C(=O)NO)cn3)CC2)c2ccccc21 | 97.4%
CCOC(=O)C1=C(C)NC(C)=C(C(=O)OC)C1c1cccc(Cl)c1Cl (configuration not stated) [Felodipine] | 22.1%
CC(C)[C@H](O)C(=O)N[C@@H](C)C(=O)N[C@@H]1C(=O)N(C)CCc2ccccc21 | 15.3%
C=C1C(=O)O[C@@H]2/C=C(\C)CC/C=C(\C)CC[C@@H]12 [Costunolide] | 40.3%
CN1CCN(C(=O)c2cc3cc(Cl)ccc3[nH]2)CC1 | 3.51%
